# Measurements published in ChEMBL document CHEMBL1157539, “Thousands of chemical starting points for antimalarial lead identification” (Nature, 2010).
# Over roughly 13,000 compounds, “IFI” has its median near 4; the highest 2% begin near 17. The list shows a part of the results.
# Experiment: GSK_TCMDC: Inhibition Frequency Index (IFI). The number of non-kinase HTS assays where a compound showed > 50 % inhibition, expressed as a percentage of the number of such assays in which the compound was tested (-0 is zero)
# Type: functional
row,Compound,IFI [%]
1,CCCCc1cc(O)c2c(c1)OC(C)(C)C=C2C1=CCN(Cc2ccccc2)CC1,1.43
2,CCN(CC)c1ccc(C(c2ccc(N(CC)CC)cc2)c2ccc([N+](=O)[O-])cc2)cc1,4.35
3,O=c1c2ccc(Sc3ccccn3)cc2n(-c2ccccc2)c2cc(Sc3ccccn3)ccc12,4.51
4,NC1=NC(Cc2ccccc2)(c2ccncc2)C(=O)N1CCCc1ccccc1 (stereo unspecified),2.44
5,Fc1cccc(-c2ccc3c(c2)CC(NCc2c[nH]c4cnccc24)C3)c1 (stereo unspecified),11.4
6,CCCCCCN1CCC(NCc2cccc(C#N)c2)CC1,-0
7,CC(=O)N1CCC(C(=O)Nc2ccc(-c3cccc(-c4nc5cccc(C)c5[nH]4)c3)cc2)CC1,6.54
8,O=S(=O)(c1cc(Cl)c(Cl)cc1Cl)N1CCCCC(c2ccc(C(F)(F)F)cc2)=N1,-0
9,COc1ccc(-c2ccc(NC(=O)c3ccc(Cl)cc3)cc2)cc1CN(C)CCN(C)C,4.95
10,Cc1cccc2nc(-c3ccc(-c4cccc(NCc5cn6cccnc6n5)c4)cc3)[nH]c12,6.19
11,CCCC(C)Nc1nc(C)cc(N[C@@H](Cc2ccccc2)C(=O)Nc2ccc(OC)cc2)n1 (stereo partly specified),2.78
12,c1ccc(-c2ccc(-c3nc4ccccc4[nH]3)cc2)cc1,4.03
13,Fc1cccc(C=NN=c2cc[nH]c3ccccc23)c1,0.71
14,O=C(O)c1ccc(NC(=O)C2CC(=O)N(Cc3ccc(Cl)cc3)C(=Nc3ccc(Cl)cc3)S2)cc1 (stereo unspecified),0
15,O=C(Nc1ccc(Cl)cc1F)NC1CCN(CCCCCNC(=O)C2CC2c2ccc(Cl)c(Cl)c2)CC1 (stereo unspecified),10.7
16,O=C(/C=C/c1ccc(Cl)c(Cl)c1)NCCCCCN1CCCC(CNC(=O)Nc2ccc(Oc3ccccc3)cc2)C1 (stereo unspecified),9.42
17,Cc1ccc(N2CCN(C(=O)c3cccc(-c4cncc5nc(-c6ccco6)n(C)c45)c3)CC2)nc1,-0
18,CCC(C)CN1C(=O)C(c2ccccc2)(c2ccccc2)N=C1N (stereo unspecified),2.86
19,Cc1cc(C(F)(F)F)cc(-n2ncc(-c3ccc(C(=O)NCc4ccccc4N)cc3)c2N)n1,10.8
20,COc1ccc(-c2nc3c(N)nc(N)nc3nc2C(C)C)cc1,3.79
21,Cc1cc(C2CCN(CCCCNC(=O)c3ccc(NC(=O)c4ccc(Cl)cc4)cc3)CC2)c(C)cc1OCc1nccn1C,0.76
22,CN(C)c1ccc(CN2CCC(NC(=O)c3ccc(-c4ccccc4Cl)s3)CC2)cc1,12.5
23,CC(C)(CN)c1nc(-c2ccc(Br)c(O)c2)c(-c2ccncc2)[nH]1,4.38

row,Compound,IFI [%]
1,CC(C)CNC(=O)c1cncc(-c2ccc(CN3CCC(N4CCCC4)CC3)cc2)c1,-0
2,CC(C)N1CCC(Oc2ccc(CN3CCN(C(c4ccccc4)c4ccc(Cl)cc4)CC3)cc2)CC1 (stereo unspecified),13.9
3,CCc1ccc(C(=O)Nc2cccc(CN3CCCN(Cc4ccc(O)cc4)CC3)c2)cc1,4.83
4,COc1ccc(C2CC(=O)C3=C(C2)NC(C)=C(C(=O)OC2CCCC2)C3c2cccc(O)c2)cc1 (stereo unspecified),5.48
5,CC1CN(CCCn2c3ccccc3c3ccc(C(=O)CCCN(C)C)cc32)CC(C)N1 (stereo unspecified),3.62
6,CCCC(CNCc1cccc(OC(F)(F)F)c1)CNc1cc(=O)c2ccccc2[nH]1 (stereo unspecified),2.9
7,CSC1=NC(=Nc2ccccc2C)C2(CCC(C(C)(C)C)CC2)N1c1ccccc1Cl (stereo unspecified),2.96
8,CCOc1cc(NCCSCc2nc[nH]c2C)nc2ccccc12,1.52
9,CN1CCc2cc(I)c(O)cc2C1Cc1ccccc1Cl (stereo unspecified),4.17
10,Cc1cc(CNCCCCCCCNCc2cccc([N+](=O)[O-])c2)ccc1O,-0
11,COc1ccc2nccc(N3CCC(NCCNCc4ccc5c(n4)NC(=O)CO5)C3)c2n1 (stereo unspecified),6.43
12,CC(C)CNCc1cccc(-c2ccc(CN(C(=O)NCCc3ccccc3)C3CCN(Cc4ccccc4)CC3)cc2)c1,10.9
13,N#Cc1ccccc1Sc1ccccc1C(=O)Nc1ccc2ccccc2n1,2.25
14,CN1CCN(c2ccnc3ccc(NC(=O)Nc4ccc5ccccc5c4)cc23)CC1,1.46
15,O=C(NCCN1CCOCC1)c1csc(C2CCCN(C(=O)c3ccc(O)c(-c4cc(Cl)cc(Cl)c4)c3)C2)n1 (stereo unspecified),0.74
16,CCC(C)OC(=O)C1=C(C)NC2=C(C(=O)CC(c3ccc(OC)c(OC)c3)C2)C1c1ccc(O)cc1 (stereo unspecified),0.69
17,COc1ccc2nccc([C@@H](O)CN3CCC(NC[C@H](Cc4ccccc4)NC(=O)OC(C)(C)C)CC3)c2c1,2.19
18,COc1ccc(-c2cc(NCc3ccc(-n4ccnc4)cc3)nc(Nc3ccccc3)n2)cc1,-0
19,CCc1nc(N)nc(N)c1CCCOc1ccccc1Cl,5.3
20,OCCNc1nc(Nc2ccc(F)cc2)nc2ccccc12,3.52
21,CC(C)N1CCN(c2ccc(OCCCCN3CCN(c4cccc(Cl)c4Cl)CC3)cc2Cl)CC1,14.1
22,CCCS(=O)(=O)N1CCC(CO)(Cc2ccccc2C(F)(F)F)CC1,0
23,Cc1ccnc(NC(c2ccc(Cl)c([N+](=O)[O-])c2)c2ccc3cccnc3c2O)c1 (stereo unspecified),6.43

row,Compound,IFI [%]
1,CN(CCO)Cc1ccc(-c2ccc(NS(=O)(=O)c3cccc4cccnc34)cc2)cc1,5.43
2,O=C(Nc1ccc2c(c1)CCC2)N[C@H]1CCN(CCCCCNC(=O)C2CC2c2ccc(Cl)c(Cl)c2)C1 (stereo partly specified),13.5
3,O=C(Nc1ccc(OC2CCN(Cc3ccc(F)cc3)CC2)c(Cl)c1)c1ccsc1,4.84
4,Fc1ccc2[nH]c(-c3ccc(-c4ccc(CNCCN5CCNCC5)cc4)s3)nc2c1,6
5,CC(C)(C)c1ccc(NC(=O)c2cccc(CN3CCCN(Cc4cccc(O)c4)CC3)c2)cc1,13.3
6,OC(CNc1ccnc(Nc2ccccc2)n1)c1ccc(C(F)(F)F)cc1 (stereo unspecified),8.08
7,O=C(Nc1ccccc1Cl)N(Cc1cc(Cl)cc(Cl)c1)CC(O)COc1ccc(Cl)c(F)c1 (stereo unspecified),0.7
8,O=C(Nc1c(F)cccc1F)c1cccc(-c2nn3ccccc3c2-c2ccnc(Nc3cccc(-c4cnco4)c3)n2)c1,8.33
9,Cc1cc(NC(=O)NCCN2CCC(NS(=O)(=O)c3ccccc3Cl)C2)c2ccccc2n1 (stereo unspecified),0
10,Cc1cc(N2CCCC2)nc(Nc2ccc(NC(=O)c3ccc(Br)o3)cc2)n1,5.41
11,COc1ccccc1N1CCN(Cc2c(NC(C)=O)sc(C)c2C)CC1,0.83
12,CC(CN1CCN(C)CC1)C(=O)Nc1cccc(-c2ccc(-c3nc4cc(C(F)(F)F)ccc4[nH]3)cc2)c1 (stereo unspecified),4.55
13,CCCCCCNc1cc(C)nc2ccc(OC)cc12,1.48
14,COC(=O)c1cccc(C#CCCOCCCCCCNC[C@H](O)c2cc(Cl)c(N)c(Cl)c2)c1,6.06
15,CC(C)CCn1c(Sc2ccc(C#N)c([N+](=O)[O-])c2)nnc1-c1ccc(N(C)C)cc1,5.63
16,OC1=C2C(=Nc3ccccc3SC2c2ccccc2)c2ccccc21 (stereo unspecified),5.04
17,CC1(C)N=C(N)N=C(N)N1c1ccc(Cl)cc1,1.46
18,CC(CON1C(N)=NC(N)=NC1(C)C)Cc1ccc(Cl)cc1Cl (stereo unspecified),7.3
19,Cc1ccc(NC(=O)c2nc(N3CCN(c4ccncc4)CC3)ccc2Cl)cc1F,6.9
20,Cc1cc(N[C@@H](CC(C)C)C(=O)NCc2cccc(F)c2)nc(NCCc2ccccc2)n1,17.1
21,Cc1noc(C)c1-c1cccc(CNCc2ccc(-c3cccc(-c4nc5cc(C(F)(F)F)ccc5[nH]4)c3)cc2)c1,6.93
22,Cc1nc(C)c(CC(=O)Nc2ccc(-c3ccc(-c4nc5cc(C(F)(F)F)ccc5[nH]4)s3)cc2)s1,12.3
23,O=c1c2ccccc2[nH]c2nc3ccccc3c(Nc3ccccc3)c12,-0

row,Compound,IFI [%]
1,Cc1ccc(Nc2ccnc(Nc3ccc(C)c(F)c3)n2)cc1O,8.7
2,CCN(CC)CCN(Cc1ccc(-c2ccc(C(F)(F)F)s2)cc1)C(=O)Cn1c(CCc2cccc(F)c2F)nc(=O)c2ccccc21,2.9
3,Cn1c2c(c3ccccc31)CN(CCC1(c3ccc(Cl)c(Cl)c3)CN(C(=O)c3ccccc3)CCO1)CC2 (stereo unspecified),5.67
4,CCOC(=O)c1ccc(NC(=O)Nc2cccc(-c3ccc(-c4nc5cc(C(F)(F)F)ccc5[nH]4)cc3)c2)cc1,3
5,CCc1c(C)nc(-n2nc(C)cc2NC(=O)C(CC)c2ccccc2)[nH]c1=O (stereo unspecified),11.8
6,CN(C)Cc1ccc(-c2ccc3ccnc(N)c3c2)cc1,4.9
7,Cc1cccc2nc(C(=O)Nc3nc(CN4CCC(C)CC4)cs3)cn12,4.41
8,CC(C)CC(=O)N(Cc1ccc(-c2ccc(CNC3Cc4ccccc4C3)cc2)cc1)C1CCNCC1,6.47
9,Cc1ccc(NC(=O)c2cccc(C#N)c2)cc1-c1ccc(C(=O)Nc2ccncc2)cc1,24.6
10,Cc1cc(C(F)(F)F)n2nc(C(=O)N(C)Cc3cncn3Cc3ccc(F)cc3)cc2n1,11.7
11,O=S(=O)(/C=C/c1ccccc1)N(Cc1ccc(-c2ccc(CNCCc3ccccc3)cc2)cc1)CC1CCCCN1 (stereo unspecified),11.7
12,Cc1ccccc1CNc1noc(-c2sccc2Br)n1,7.46
13,COc1ccc(-c2csc3nc(C)nc(Cl)c23)cc1OC,2.59
14,CO/C(=C\C=C\c1cc2cc(Cl)ccc2[nH]1)C(=O)NCCCN1CCN(c2cc(Cl)ccc2OC)CC1,10.9
15,CC[C@H](C)CNC(=O)c1ccnc(-c2cccc(CN(C)C3CCN(C)CC3)c2)c1,-0
16,O=C(Nc1cccc(C(F)(F)F)c1)NC1CCN(c2ccnc3ccccc23)CC1,3.03
17,O=C(Nc1ccc(-c2cccc(-c3nc4cc(C(F)(F)F)ccc4[nH]3)c2)cc1)c1ccoc1,7.08
18,O=C(Cc1n[nH]c(=O)c2ccccc12)Nc1cccc(C(=O)Nc2cccc(C(F)(F)F)c2)c1,1.41
19,Cc1[nH]c2c(C)cccc2c1C1CCN(CCC2CCN(C(=O)/C=C/c3ccc(Cl)c(Cl)c3)CC2)CC1,7.14
20,Cc1nc(-c2nc(N3CCC(O)CC3)ncc2-c2ccsc2)sc1C,3.45
21,CC(Nc1ccc2c(c1)OCCO2)C(=O)Nc1cc(C(F)(F)F)ccc1N1CCOCC1 (stereo unspecified),6.25
22,CNCC(C)(C)c1nc(-c2ccc(Cl)c(O)c2)c(-c2ccncc2)[nH]1,2.17
